{"source": "PubChem BioAssay AID360", "about": "(National Center for Advancing Translational Sciences (NCATS), 2006)", "note": "Screen size: about 48,000 compounds; about 550 (1.1%) were called active. This list was built around the results that the source calls inconclusive (neither active nor inactive); the mix of calls is not that of the screen. Cut-off read from the data, not from the text of the source: active = potency below about 15 µM; inconclusive = mostly about 16 µM to 33 µM; inactive = weaker than that. No potency is given beside an inconclusive call; the fits are too rough. Potency is the fitted concentration of half-maximal effect."}
{"target": "Lysosomal acid glucosylceramidase (Homo sapiens) (UniProt P04062)", "sequence (P04062 whole entry, looked up)": "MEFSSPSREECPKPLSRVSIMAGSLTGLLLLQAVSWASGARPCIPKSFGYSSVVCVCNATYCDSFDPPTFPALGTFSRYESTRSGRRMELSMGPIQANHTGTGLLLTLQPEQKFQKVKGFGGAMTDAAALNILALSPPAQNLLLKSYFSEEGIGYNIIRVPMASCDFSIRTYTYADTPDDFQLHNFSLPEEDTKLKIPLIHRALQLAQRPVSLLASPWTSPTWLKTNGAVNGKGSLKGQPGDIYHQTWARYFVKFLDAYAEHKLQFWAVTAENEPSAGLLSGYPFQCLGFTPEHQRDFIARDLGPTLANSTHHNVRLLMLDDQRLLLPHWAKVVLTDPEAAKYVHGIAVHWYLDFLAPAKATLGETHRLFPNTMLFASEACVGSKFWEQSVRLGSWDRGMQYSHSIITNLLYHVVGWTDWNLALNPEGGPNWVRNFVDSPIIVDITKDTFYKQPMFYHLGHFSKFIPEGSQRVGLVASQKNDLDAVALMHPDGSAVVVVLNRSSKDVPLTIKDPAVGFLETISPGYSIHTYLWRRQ", "assay": "Glucocerebrosidase;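 note: the screen sought inhibitors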", "conditions": "purified enzyme, resorufin glucoside fluorescence (screen aimed at inhibitors), 20 min", "in_short": "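Normal human glucocerebrosidase (0.2 nM final) was assayed with resorufin β-D-glucopyranoside (30 uM final) in 50mM citric acid/KH2PO4, 10mM sodium taurocholate, 0.01% tween-20, pH 5.9. Compounds were titrated; fluorescence (Ex 548, Em 600) read after 20 min at RT.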"}
{"smiles": "CCC(C)NC(=O)c1ccccc1NS(=O)(=O)c1ccc(OC)c(OC)c1", "note": "(centres undefined)", "Potency": "inconclusive [decreasing]"}
{"smiles": "Cc1nn(C)cc1CNC(=O)c1cnn2c(C(F)F)cc(C3CC3)nc12", "Potency": "inconclusive [increasing]"}
{"smiles": "Cc1ccc(NC(=O)C2CCCN(S(=O)(=O)c3c(C)noc3/C=C/N(C)C)C2)cc1F", "note": "(centres undefined)", "Potency": "inconclusive [decreasing]"}
{"smiles": "O=c1[nH]c2cc3c(cc2cc1C(c1nnnn1CC1CCCO1)N1CCCC1)OCO3", "note": "(centres undefined)", "Potency": "inactive: > 76.9 µM"}
{"smiles": "CC1CCCCC1NC(=O)CCCc1nc2ccccc2c(=O)[nH]1", "note": "(centres undefined)", "Potency": "inconclusive [decreasing]"}
{"smiles": "CCOC(=O)c1c(C)[nH]c(C)c1C(=O)Cn1nnc(-c2ccccc2C)n1", "Potency": "inconclusive [decreasing]"}
{"smiles": "Cc1nc(NCc2ccccc2)[nH]c(=O)c1CCC(C)C", "Potency": "inconclusive [decreasing]"}
{"smiles": "COc1ccc2[nH]c(=O)c(CN(CCO)C(=O)c3ccccc3F)cc2c1", "Potency": "inactive: > 76.9 µM"}
{"smiles": "CCOC(=O)C1=C(C)NC(SCc2cc(=O)[nH][nH]2)=C(C#N)C1c1cccs1", "note": "(centres undefined)", "Potency": "inconclusive [decreasing]"}
{"smiles": "O=C(COC(=O)c1cc(=O)[nH]c2ccccc12)NC(=O)NC1CCCCC1", "Potency": "inactive: > 76.9 µM"}
{"smiles": "O=C(CCCn1c(SCC(=O)c2ccc(O)c(O)c2)nc2ccccc2c1=O)NCC1CCCO1", "note": "(centres undefined)", "Potency": "inconclusive [decreasing]"}
{"smiles": "CC(C)(C)C(=O)Nc1ccccc1N1CCN(C(=O)c2ccc(Cl)cc2)CC1", "Potency": "inconclusive [decreasing]"}
{"smiles": "CCN1CCCC1CNc1ncnc2c1[nH]c1ccc(Cl)cc12", "note": "(centres undefined)", "Potency": "inconclusive [decreasing]"}
{"smiles": "CCOc1ccc(NC(=O)CC2NCCNC2=O)cc1", "note": "(centres undefined)", "Potency": "inconclusive [decreasing]"}
{"smiles": "CC1(C)CC(=O)c2cnc(N3CCN(c4ccccc4)CC3)nc2C1", "Potency": "inconclusive [increasing]"}
{"smiles": "COC(=O)c1nnc(-c2ccccc2)c(-c2ccccc2)n1", "Potency": "inconclusive [decreasing]"}
{"smiles": "CN(C)c1ccc(-c2nn3c(-c4ccncc4)nnc3s2)cc1", "Potency": "inactive: > 76.9 µM"}
{"smiles": "COc1ccc(S(=O)(=O)n2c(CCN3CCOCC3)nc3ccccc32)cc1", "Potency": "inconclusive [decreasing]"}
{"smiles": "N#Cc1cc2c(nc1SCc1nc3ccccc3[nH]1)CCC2", "Potency": "inactive: > 76.9 µM"}
{"smiles": "Cc1ccc(N2CC(C(=O)N3CCN(c4ccccc4)CC3)CC2=O)cc1", "note": "(centres undefined)", "Potency": "inactive: > 76.9 µM"}
{"smiles": "O=C(Nc1ccccc1C(F)(F)F)c1cc(S(=O)(=O)N2CCC3(CC2)OCCO3)ccc1F", "Potency": "inconclusive [decreasing]"}
{"smiles": "CCc1nnc(NC(=O)CSc2nnc(-c3ccoc3C)n2-c2ccccc2)s1", "Potency": "inconclusive [decreasing]"}
{"smiles": "COCCCNC(=O)Nc1ccc(F)cc1F", "Potency": "inactive: > 76.9 µM"}
{"smiles": "CC(C)CN1C(=O)c2ccc(C(=O)Nc3ccncc3)cc2C1=O", "Potency": "inconclusive [decreasing]"}
{"smiles": "O=S(=O)(Nc1nc2ccccc2nc1NCc1ccco1)c1ccc(Cl)cc1", "Potency": "inactive: > 76.9 µM"}
{"smiles": "NC(=O)CN1C(=O)C2C3C=CC(C3)C2C1=O", "note": "(centres undefined)", "Potency": "inactive: > 76.9 µM"}
{"smiles": "O=C(Nc1ccccn1)c1ccc(NC(=O)c2ccco2)cc1", "Potency": "inconclusive [decreasing]"}
{"smiles": "Cc1cc(C)c2nc(N3CCN(C)CC3)c(C#N)cc2c1", "Potency": "inconclusive [decreasing]"}
{"smiles": "O=S(=O)(NCCCCCNS(=O)(=O)c1ccccc1)c1ccccc1", "Potency": "inconclusive [decreasing]"}
{"smiles": "COC(=O)c1sc(=S)n(-c2cc(F)ccc2F)c1N", "Potency": "inconclusive [decreasing]"}
{"smiles": "O=C(Nc1ccc(Cl)cc1)Nc1ccc2c(c1)N1CCN=C1S2", "Potency": "inconclusive [decreasing]"}
{"smiles": "CN1CCN(c2ccc(NC(=O)COc3ccccc3Cl)cc2)CC1", "Potency": "inconclusive [decreasing]"}
{"smiles": "C=CCn1c(Cc2cccs2)nnc1SCC(=O)c1cccc(Br)c1", "Potency": "inconclusive [decreasing]"}
{"smiles": "CC(C(=O)NC1CCCC1)N(C(=O)c1snc(C(N)=O)c1N)c1ccc2c(c1)OCCO2", "note": "(centres undefined)", "Potency": "inconclusive [decreasing]"}
{"smiles": "COc1ccc(NS(=O)(=O)c2ccc(OC)c3ccccc23)cn1", "Potency": "inconclusive [decreasing]"}
{"smiles": "O=C(CSCc1c(F)cccc1Cl)NCc1ccco1", "Potency": "inactive: > 76.9 µM"}
{"smiles": "CCOC(=O)c1c(NC(=O)Cc2cccs2)sc2c1CCCC2", "Potency": "inconclusive [increasing]"}
{"smiles": "COc1ccc(CN(Cc2cc3cc4c(cc3[nH]c2=O)OCO4)C(=O)NC2CCCCC2)cc1", "Potency": "inconclusive [decreasing]"}
{"smiles": "CCn1nnc(NC(=O)c2ccccc2Br)n1", "Potency": "inactive: > 76.9 µM"}
{"smiles": "O=c1[nH]c2c(c3c1CCCC3)CCCC2", "Potency": "inactive: > 76.9 µM"}
{"smiles": "COc1ccccc1NC(=O)c1ccc(-c2ccccc2F)o1", "Potency": "inconclusive [increasing]"}
{"smiles": "CCCC(O)(CCN(C)C)c1ccc(OC)cc1", "note": "(centres undefined)", "Potency": "inconclusive [decreasing]"}
{"smiles": "O=C(NCCCn1ccnc1)Nc1ccc(Cl)c(Cl)c1", "Potency": "inconclusive [decreasing]"}
{"smiles": "Cc1oc2c(CN(C)C)c(O)ccc2c(=O)c1-c1cscn1", "Potency": "inactive: > 76.9 µM"}
{"smiles": "CCCCN(CCCC)S(=O)(=O)c1ccc(C(=O)Nc2nnc(COC)o2)cc1", "Potency": "inconclusive [decreasing]"}
{"smiles": "Cc1cc(-n2c(C)cc(C(=O)CSc3ncnc4ccccc34)c2C)no1", "Potency": "inactive: > 76.9 µM"}
{"smiles": "CC(=O)N1CCN(c2ccc(NCc3ccc4c(c3)OCO4)cc2)CC1", "Potency": "inconclusive [decreasing]"}
{"smiles": "Cc1ccccc1CS(=O)(=O)CCC(=O)NCCN1CCN(c2cccc(Cl)c2)CC1", "Potency": "inconclusive [decreasing]"}
{"smiles": "NC1=NC(=Nc2ccccc2)c2ccccc21", "Potency": "active: 10.1 µM"}
